Test results from PMC4336329 (PLoS ONE, 2015).
The whole screen tested about 310,000 compounds, of which about 14,000 (4.5%) showed an effect of 50% or more. The effect is printed as a negative number. The list shows a part of the results.

Each compound was assayed against human ether-à-go-go-related gene (hERG) potassium channel (human, UniProt Q12809) (assay: primary screen, population patch clamp on CHO cells stably expressing hERG).
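Also: peak tail current of the secondary pulse compared with the same well before compound.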

Chain of human ether-à-go-go-related gene (hERG) potassium channel (Q12809 whole entry, looked up): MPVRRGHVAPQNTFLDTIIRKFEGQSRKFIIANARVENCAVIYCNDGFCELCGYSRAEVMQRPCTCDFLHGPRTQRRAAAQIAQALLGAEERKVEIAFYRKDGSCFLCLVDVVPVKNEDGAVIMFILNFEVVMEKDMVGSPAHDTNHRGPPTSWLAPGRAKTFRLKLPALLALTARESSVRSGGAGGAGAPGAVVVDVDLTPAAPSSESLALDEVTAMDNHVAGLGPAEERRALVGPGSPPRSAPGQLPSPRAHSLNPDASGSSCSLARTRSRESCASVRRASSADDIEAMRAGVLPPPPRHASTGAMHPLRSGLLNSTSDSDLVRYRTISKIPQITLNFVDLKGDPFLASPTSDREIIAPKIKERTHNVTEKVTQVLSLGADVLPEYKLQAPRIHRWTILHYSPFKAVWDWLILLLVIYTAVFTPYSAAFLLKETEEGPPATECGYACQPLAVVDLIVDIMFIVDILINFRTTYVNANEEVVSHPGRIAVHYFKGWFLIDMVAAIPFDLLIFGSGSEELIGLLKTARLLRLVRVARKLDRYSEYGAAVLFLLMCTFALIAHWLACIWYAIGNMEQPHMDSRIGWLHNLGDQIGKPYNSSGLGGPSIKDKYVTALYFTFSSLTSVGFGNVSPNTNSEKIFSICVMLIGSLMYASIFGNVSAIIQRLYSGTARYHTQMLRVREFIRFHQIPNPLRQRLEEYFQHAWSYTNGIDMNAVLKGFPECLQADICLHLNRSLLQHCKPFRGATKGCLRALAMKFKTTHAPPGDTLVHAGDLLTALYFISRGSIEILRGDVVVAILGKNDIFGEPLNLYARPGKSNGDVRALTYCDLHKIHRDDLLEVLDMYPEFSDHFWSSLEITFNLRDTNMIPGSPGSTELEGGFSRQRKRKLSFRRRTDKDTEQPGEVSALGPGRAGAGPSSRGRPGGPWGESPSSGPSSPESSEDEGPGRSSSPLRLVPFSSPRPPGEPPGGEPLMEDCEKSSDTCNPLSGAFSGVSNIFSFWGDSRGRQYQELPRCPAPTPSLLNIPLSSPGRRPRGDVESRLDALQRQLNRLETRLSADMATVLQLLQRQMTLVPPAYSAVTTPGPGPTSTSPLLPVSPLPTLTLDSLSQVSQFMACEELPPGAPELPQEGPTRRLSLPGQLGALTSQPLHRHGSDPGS

SMILES | hERG current change (%, negative = inhibition) at 10uM [%]
Nc1nc(CN2CCN(c3ccccc3F)CC2)nc(Nc2ccc3c(c2)OCCO3)n1 | -74.4
Cc1cc(C)c(NC(=O)C(C)N2CCCCCC2)c(C)c1.Cl (stereo not drawn) | -5.7
Cc1ccc(-c2ccc(/C=N\NC(=O)c3cc4c(ccc5ccccc54)o3)o2)cc1[N+](=O)[O-] | 10.5
CS(=O)(=O)c1ccc2nc(NC(=O)C3=NN(c4ccccc4)C(=O)CC3)sc2c1 | -22.1
COc1ccc(NC(=O)N2CCCC2C(=O)NCC2CCCCC2)cc1 (stereo not drawn) | 0.904
Cc1nc2scc(C)n2c(=O)c1S(=O)(=O)NCCc1ccc(Cl)cc1 | 7.69
COC(=O)c1ccc(N2CCCCC2)c(N)c1 | -4.44
CCCCCCCCCCCC(=O)NC(Cc1ccc(OC)c([N+](=O)[O-])c1)C(=O)[O-].[NH4+] (stereo not drawn) | -28.9
O=C(OCc1ccc([N+](=O)[O-])cc1)c1ccc2ccccc2n1 | -19
CC1CCCN(C(=O)CSc2nnc(-c3ccncc3)n2C)C1 (stereo not drawn) | 45.9
CCC1=NC(c2ccccc2Cl)N(O)C1(C)C (stereo not drawn) | 21.6
O=C(CSc1ccccc1)NC1=NCCS1 | 3.33
CC(=O)Nc1cccc(C(=O)N/N=C/c2ccc(F)cc2)c1 | 10.6
Cc1cccc(OC(C)C(=O)Nc2nccs2)c1 (stereo not drawn) | 8.8
COc1ccc(C2CC(=O)Nc3ccccc3S2(=O)=O)cc1OC (stereo not drawn) | 5.26
O=C(NC1CN2CCC1CC2)c1ccc(-c2ccc([N+](=O)[O-])cc2)o1 (stereo not drawn) | -64
CCCNC(=O)NC(=O)CN1C(=O)NC(C)(c2ccc3ccccc3c2)C1=O (stereo not drawn) | 4.51
Cc1cccc(NC(=O)CSc2nc(C)c(CC(=O)c3ccc(Br)cc3)c(C)c2C#N)c1C | 18.4
C=CCNc1nc2c(c(=O)n(C)c(=O)n2C)n1CC | 7.31

SMILES | hERG current change (%, negative = inhibition) at 10uM [%]
Cc1ccc(CNC(=O)CN2C(=O)COc3ccc(S(=O)(=O)N4CCCCC4)cc32)o1 | 16
CCC1(COC(=O)Nc2cccc(Cl)c2)COC1 | -13.3
O=C(NC(=S)Nc1cc(C(F)(F)F)ccc1N1CCOCC1)c1ccc(-c2cccc(Cl)c2)o1 | -2.47
CC(C)Nc1nc(NC(C)C)nc(NS(=O)(=O)c2ccc(N)cc2)n1 | -2.77
Cc1cccc(C)c1NC(=O)C(c1ccccc1)N1CCC1=O (stereo not drawn) | 9.89
C=C1N2CCC(CC2)C1(O)c1ccccc1C.Cl (stereo not drawn) | 3.97
CCOc1ccccc1OCCn1nnc2ccccc21 | -2.6
Cc1nc2nc[nH]n2c(=O)c1NC(=O)CCc1ccccc1 | 1.26
COc1cc(C(=O)Oc2ccccc2/C=N/NC(=O)c2ccc(C)c(Cl)c2)cc(OC)c1OC | -3.66
CC[C@@H](C(N)=O)N1CCCC1=O | -3.78
O=[N+]([O-])c1ccc(C2=NCCO2)cc1 | 7.29
Cc1cc(C)c(S(=O)(=O)c2cccc(C(F)(F)F)c2)c(=O)[nH]1 | 11.9
CCOC(=O)CC(NC(=O)c1ccccc1)c1ccc(OC)cc1 (stereo not drawn) | 5.04
NS(=O)(=O)c1ccc(NC(=O)CN2C(=O)CCC2=O)cc1 | 27.7
COC(=O)CCC(=O)NC(=S)Nc1sc(C)c(C)c1C(N)=O | 11.1
CCN(CC)C(=O)Cn1cnc2c1c(=O)n(C)c(=O)n2C | -8.14
COc1ccccc1C(=O)NCC(=O)OCC(=O)c1ccc2c(c1)-c1ccccc1C2 | -0.208
O=S(=O)(NCc1ccc2c(c1)OCO2)c1cnc[nH]1 | 12.9
COc1ccc(NC(=O)CSc2nc(N3CCCCC3)nc(N3CCCCC3)n2)cc1 | 5.01

SMILES | hERG current change (%, negative = inhibition) at 10uM [%]
CCCn1c(SCC(=O)NCc2ccccc2)nnc1-c1ccncc1 | 5.29
CC(C)n1cc(/C=C2/NC(=O)NC2=O)c2ccccc21 | -2.61
COC(=O)c1ccccc1NC(=O)C1CCCN(S(=O)(=O)c2ccc(OC)cc2)C1 (stereo not drawn) | -7.91
O=C(Nc1cccc(S(=O)(=O)N2CCCCC2)c1)C1CC(=O)N(c2ccc3c(c2)OCCO3)C1 (stereo not drawn) | 16.9
CC(=O)Nc1cccc(NC(=O)CSc2nnc3ccc(-c4ccncc4)nn23)c1 | -17.8
Cl.O=C1CCN=C(Nc2ccc(F)cc2)N1Cc1ccccc1 | -12.9
FC(F)(F)c1nc(Oc2ccccc2)c2ccccc2n1 | 11.3
COc1cccc(S(=O)(=O)NCc2ccc3c(c2)OCO3)c1 | -16.5
Cl.O=C(/C=C/c1cccc(OCc2ccccc2)c1)c1cccnc1 | 13.5
COc1ccc(S(=O)(=O)N2CCOCC2)cc1NC(=O)c1ccc(Cl)cc1 | 2.56
CCN(CCO)c1cc(Cl)nc(SC)n1 | -3.89
CCc1ccc(N2CC(C(=O)Nc3ccc4c(c3)OCCO4)CC2=O)cc1 (stereo not drawn) | -41.3
CCOC(=O)N1CCN(S(=O)(=O)c2ccc([N+](=O)[O-])cc2)CC1 | -23.9
Cc1nn(CC(=O)Nc2ccccc2C(F)(F)F)c(=O)c2cccn12 | 6.34
COc1ccc(OC)c(S(=O)(=O)N(C)CC(=O)N2CCN(c3ccc(F)cc3)CC2)c1 | -44.3
Cc1cc2nc(SC(C)C(=O)O)[nH]c2cc1C (stereo not drawn) | 25.9
COc1cccc(CCNC(=O)CC2C(=O)NCCN2Cc2ccc(Cl)c(F)c2)c1 (stereo not drawn) | -15.1
COc1ccc(-c2sc(Nc3ccccc3)n[n+]2-c2ccc(F)cc2)c(C)c1C.[Cl-] | -74.5
CCCSC(=O)N(CC)CC(=O)Nc1c(CC)cccc1CC | -16.6
